Measurements from PubChem BioAssay AID686979 (National Center for Advancing Translational Sciences (NCATS), 2013).
Among all 420,000 compounds or so, about 50,000 (12%) were called active. Calls follow the shape of the dose curve; as a rule, active = well fitted inhibition curve with a large enough effect; inconclusive = small, poorly fitted or top-dose-only effect; inactive = flat fitted curve, though single readings scatter. Inconclusive means that the source gave no clear call. No potency is given beside an inconclusive call; the fits are too rough.

assay: qHTS for Inhibitors of human tyrosyl-DNA phosphodiesterase 1 (TDP1): qHTS in cells in presence of CPT; settings: chicken DT40 Tdp1-/-;hTDP1 cells + 20 nM CPT, ATP luminescence, 48 h; series mostly up to 46.2 µM; also: nearly all actives have a fitted effect of over 55% in size
Summary of the method: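 Chicken DT40 Tdp1-/- cells stably complemented with human TDP1 were seeded at 400 cells/well in medium containing 20 nM camptothecin, exposed to pin-transferred compounds, and grown at 37 °C for at least 48 hr. Viability was read as ATP luminescence.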
Potency is read from the fitted curve at half-maximal effect; tags tell the direction and shape of the fitted curve.

SMILES | Potency
O=C(CSc1ncnc2sccc12)N1CCN(C(=O)c2cccs2)CC1 | inconclusive [inhibitor, single point]
